Hit rate of the full screen: of about 310,000 compounds, about 14,000 (4.5%) showed an effect of 50% or more. Effects have a minus sign here. This is one part of the list.
target: human ether-à-go-go-related gene (hERG) potassium channel (human, UniProt Q12809); assay: primary screen, population patch clamp on CHO cells stably expressing hERG
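Further: peak tail current of the secondary pulse compared with the same well before compound.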

human ether-à-go-go-related gene (hERG) potassium channel, sequence (Q12809 whole entry, looked up): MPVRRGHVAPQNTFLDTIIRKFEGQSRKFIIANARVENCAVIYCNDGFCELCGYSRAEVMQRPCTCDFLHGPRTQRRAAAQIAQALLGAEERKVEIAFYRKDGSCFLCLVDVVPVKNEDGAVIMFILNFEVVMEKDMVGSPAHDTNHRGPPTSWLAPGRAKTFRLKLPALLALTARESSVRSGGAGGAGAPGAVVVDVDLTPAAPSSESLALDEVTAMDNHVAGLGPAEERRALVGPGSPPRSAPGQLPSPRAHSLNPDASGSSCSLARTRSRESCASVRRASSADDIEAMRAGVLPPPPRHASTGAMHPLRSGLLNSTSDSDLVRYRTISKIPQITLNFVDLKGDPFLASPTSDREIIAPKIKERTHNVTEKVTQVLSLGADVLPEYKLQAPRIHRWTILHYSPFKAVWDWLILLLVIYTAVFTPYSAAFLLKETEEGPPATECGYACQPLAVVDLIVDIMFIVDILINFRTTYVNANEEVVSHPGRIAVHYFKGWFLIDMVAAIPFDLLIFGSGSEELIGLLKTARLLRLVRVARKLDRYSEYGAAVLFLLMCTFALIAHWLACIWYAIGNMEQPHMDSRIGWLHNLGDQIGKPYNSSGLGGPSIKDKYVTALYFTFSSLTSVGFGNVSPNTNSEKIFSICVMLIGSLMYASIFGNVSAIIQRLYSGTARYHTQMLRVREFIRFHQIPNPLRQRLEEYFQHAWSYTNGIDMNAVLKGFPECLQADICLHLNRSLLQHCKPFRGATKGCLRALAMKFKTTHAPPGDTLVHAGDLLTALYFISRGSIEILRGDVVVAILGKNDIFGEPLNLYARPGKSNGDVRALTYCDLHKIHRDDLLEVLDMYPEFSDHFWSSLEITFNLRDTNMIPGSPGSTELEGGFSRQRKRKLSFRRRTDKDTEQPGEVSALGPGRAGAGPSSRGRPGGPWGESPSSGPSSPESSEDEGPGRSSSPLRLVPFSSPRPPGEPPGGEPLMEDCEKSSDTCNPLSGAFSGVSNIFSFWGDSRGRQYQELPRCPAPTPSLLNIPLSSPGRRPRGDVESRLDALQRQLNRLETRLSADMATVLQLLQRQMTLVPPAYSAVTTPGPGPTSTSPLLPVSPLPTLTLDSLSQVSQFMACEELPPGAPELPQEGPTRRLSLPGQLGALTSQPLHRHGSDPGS

| SMILES | hERG current change (%, negative = inhibition) at 10uM [%] |
| --- | --- |
| CC(C)CCNC(=O)C(C)N(Cc1ccc(F)cc1)C(=O)c1ccc(CN2CCOCC2)o1 (centres unmarked) | -0.694 |
| C[N+]1=C2CCCCCN2C(O)(c2ccccc2)C1.[I-] (centres unmarked) | 13.6 |
| CC(C#N)Sc1nnc(-c2ccccc2F)n1C1CC1 (centres unmarked) | 18.2 |
| Cc1ccccc1CC(=O)N1CC(C)OC(C)C1 (centres unmarked) | 1.27 |
| O=C1c2ccccc2C(=O)N1CC(O)Cn1nnc2ccccc21 (centres unmarked) | 3.02 |
| NC1=NC2(CCCC2)n2c(nc3ccccc32)N1 | -3.51 |
| CC(C)(C)c1ccc(C(=O)N2CCC(C(=O)NC3CC3)CC2)cc1 | -2.74 |
| CCc1ccccc1OCC(=O)N(CC)CC(=O)NCc1ccc(F)cc1 | 8 |
| COc1ccc(-c2noc(CSc3nc4sc(C)c(C)c4c(=O)n3-c3ccccc3)n2)cc1 | -13.7 |
| S=C(NCc1ccccc1)N1CCN(c2ccccc2)CC1 | 20.9 |
| COc1cc(OC)cc(-n2c3nc4ccccc4nc3c3c(=O)n(CC4CCCO4)cnc32)c1 (centres unmarked) | 6.58 |
| O=C(Nc1ccc2c(c1)OCCO2)c1ccc(Br)s1 | -1.3 |
| COc1cc(OC)cc(C(=O)N2CCN(S(=O)(=O)c3ccc(Cl)s3)CC2)c1 | -43.5 |
| CC(=O)c1cccc(OCCCOc2cccc3cccnc23)c1 | -15.5 |
| CC(C)[C@@H](C(=O)N1CCN(Cc2ccc3c(c2)OCO3)CC1)n1nnc2ccccc2c1=O | -14.4 |
| COc1cc(/C=N/n2cnnc2)ccc1Oc1nc(Cl)ncc1F | -24.3 |
| Cc1[nH]n(C(C)(C)C)c(=O)c1Sc1ccccc1 | 5.7 |
| Cc1cc(C(=O)NC2CCCc3ccccc32)no1 (centres unmarked) | 3.63 |
| COc1ccc(CCN(C)C2CCCN(S(=O)(=O)C(C)C)C2)cc1OC (centres unmarked) | -20.2 |
| O=C(Cc1ccccc1)NCC(=O)N/N=C/c1cccnc1 | 14.2 |
| Cc1[nH][nH]c(=O)c1C(c1c(C)[nH][nH]c1=O)c1cn(Cc2cccc3ccccc23)c2ccccc12 | 9.8 |
| O=S(=O)(NCCOc1ccc(F)cc1)c1ccc2c(c1)OCCO2 | -18.4 |
| COc1cc(/C=N/Nc2ccc(C(=O)O)cc2)ccc1O | 7.29 |

| SMILES | hERG current change (%, negative = inhibition) at 10uM [%] |
| --- | --- |
| Cc1ccc(N(C(=O)c2ccn[nH]2)C(C(=O)NC2CCCC2)c2cccs2)cc1 (centres unmarked) | 19.6 |
| CCOc1ccc2nc(Cl)c(C3CC(c4ccccc4)=NN3C(=O)c3cccs3)cc2c1 (centres unmarked) | 10.2 |
| CCCc1ccc(C(C)NC(=S)NC2CCCCC2)cc1 (centres unmarked) | 8.67 |
| O=C(Nn1c(C2CCCCC2)nc2ccccc2c1=O)c1cc(Cl)ccc1[N+](=O)[O-] | 1.97 |
| CCC(CO)Oc1cc(NCc2ccc(OC)cc2)c2ncn(C(C)C)c2c1 (centres unmarked) | -16.3 |
| O=C(NC1CCCCC1)NC1CCN(S(=O)(=O)c2ccc3c(c2)OCCO3)CC1 | 5.52 |
| CCCCOC(=O)c1ccc(OC(=O)N2CCOCC2)cc1 | -28.6 |
| CN(CC(=O)Nc1c(Cl)cccc1Cl)C(=O)C1CSC2(C)CCC(=O)N12 (centres unmarked) | 4.5 |
| COc1cc(NC(=O)c2cc(C)on2)cc(OC)c1OC | 2.39 |
| Cc1c(CNC(=O)c2c([N+](=O)[O-])cnn2C)cnn1C | 3.81 |
| CCOC(=O)c1c(S(=O)(=O)NCC(=O)Nc2ccccc2OC)c(C)n(C)c1C | -21.2 |
| N/C(=N\OC(=O)CCCOc1ccccc1)c1cccc(Br)c1 | 36.2 |
| CC(=O)Oc1cc2c(cc1Cl)C(c1cccs1)CC1(CC(C)(C)NC(=S)N1)O2 (centres unmarked) | 9.77 |
| CCN(CC)C(=O)CSc1nnc(-c2cccnc2)n1Cc1ccccc1 | -8.04 |
| CCN(CC)P(=O)(Nc1ccc(SC(F)F)cc1)c1ccc(N(C)C)cc1NC(=O)c1ccco1 (centres unmarked) | -4.39 |
| O=C(Cn1cnc2ccccc21)c1ccccc1 | 14.3 |
| O=C(NCc1ccco1)C(=O)NCC1OCCN1C(=O)c1ccc(Cl)cc1 (centres unmarked) | -4.21 |
| CC(Oc1ccc2c(c1)c1ccnc3c4ccccc4c(=O)n2c13)C(=O)NCCN1CCOCC1 (centres unmarked) | -6.87 |
| Cc1cc(NNC(=O)c2cccc(C(F)(F)F)c2)nc2c1c(C)nn2C | 10.3 |
| CCn1nnnc1SCC(=O)N1c2ccccc2Sc2ccccc21 | 4.99 |
| CCOC(=O)c1c(C)[nH]c(C)c1S(=O)(=O)N(C)CC(=O)N(C)Cc1ccccc1 | 23 |
| CN1CC(C(=O)c2cccc(C(F)(F)F)c2)C(c2ccc(Cl)cc2)C1 (centres unmarked) | -20 |
| Cc1ccc(CNc2nc3ccccc3n3nnnc23)cc1 | 10.6 |

| SMILES | hERG current change (%, negative = inhibition) at 10uM [%] |
| --- | --- |
| O=C(Nc1cccc(C(=O)Nc2ccccc2C(=O)O)c1)c1cccc(Cl)c1 | 9.97 |
| COc1cc(C=O)cc(Br)c1OCC(N)=O | 10.1 |
| Cc1nc2ccccc2n1CC(=O)N1CC(=O)Nc2ccccc21 | 15.5 |
| COC(=O)c1sccc1Oc1ccc(F)cc1[N+](=O)[O-] | 1.74 |
| COc1cc(C(=O)Nc2ccc(C)c(S(=O)(=O)N(C)C)c2)ccc1OCC(=O)N1CCOCC1 | 2.66 |
| Cc1ccc(C(=O)Nc2ncc(C)s2)o1 | 0.552 |
| Cc1ccc(-c2nn(-c3ccccc3)cc2C(=O)NCC(c2cccs2)N2CCOCC2)cc1 (centres unmarked) | -5.08 |
| O=C(/C=C/c1cccc([N+](=O)[O-])c1)N1CCN(c2ccc(F)cc2)CC1 | -56.7 |
| CCCCn1c(N)c(N(CC)C(=O)C2=COCCO2)c(=O)[nH]c1=O | 8.34 |
| CCOc1ccc(OCCC(=O)N2CCc3cc(OC)c(OC)cc3C2)cc1 | -20.6 |
| CC(C)(C)NC(=O)CSc1nc2[nH]ncc2c(=O)[nH]1 | 9.86 |
| FC(F)(F)c1cc(C(F)(F)F)n2nc(-c3sccc3-n3cccc3)cc2n1 | 20.9 |
| O=C(NC(=S)Nc1ccc(Cc2ccncc2)cc1)c1ccc(F)cc1 | 7.59 |
| C=CCN1C(=O)/C(=C2/Sc3ccc(OC)cc3N2C)SC1=Nc1ccccc1 | -0.344 |
| Cc1cc(C)cc(NC(=S)N2CCN(Cc3ccccc3)CC2)c1 | 4 |
| COc1cc(NC(=O)CSc2ncnc3sc4c(c23)CCC(C)C4)c(C(=O)O)cc1OC (centres unmarked) | 19.9 |
| CCOc1ncccc1C(=O)NNC(=O)c1cccc(S(=O)(=O)Nc2ccc(OC)cc2)c1 | 6.87 |
| CCOc1ccc(NC(=O)CN(C)C(=O)C2CCN(c3ncnc4sc(C)c(C)c34)CC2)cc1OCC | -58.2 |
| Cc1cc(C)c(NC(=O)COC(=O)/C=C/c2cccs2)c(C)c1 | 8.38 |
| COC(=O)CC1C(=O)NCCN1C(=O)NC1CCCCC1 (centres unmarked) | -0.592 |
| CN(Cc1ccco1)c1ncnc2ccc(-c3ccc4c(c3)OCO4)cc12 | 5.54 |
| COc1cc(/C=N\NC(=O)c2sc(N)nc2C)cc(OC)c1OC | 0.828 |
| Br.CCCCC1CC(CSC(=N)N)OC1=O (centres unmarked) | -1.27 |

| SMILES | hERG current change (%, negative = inhibition) at 10uM [%] |
| --- | --- |
| CC(=O)NC(Cc1ccc(C(C)C)cc1)C(=O)NC1CCN(c2nc(C)cc(C)n2)CC1 (centres unmarked) | -3.4 |
| Cc1ccc(OCC(=O)N2N=C(c3cccnc3)CC2(O)C(F)(F)F)cc1C (centres unmarked) | -4.25 |
| S=C(Nc1cccnc1)NC1CCCCCCC1 | -1.63 |
| O=C(Nc1ccccc1)Nc1ccc(Br)c(Cl)c1 | 11 |
| Oc1ccccc1C1OCC2(CO1)COC(c1ccccc1O)OC2 (centres unmarked) | -8.32 |
| CCCN1CCN(C(=O)c2oc3c(Cl)cccc3c2C)CC1 | -24.7 |
| Cc1nc2cc(C(=O)OCC(=O)Nc3ccc(C#N)cc3)ccc2n1-c1ccccc1 | 6.46 |
| Cc1c(C#N)c(NC(=O)c2ccccc2)n(Cc2ccccc2)c1C | 2.21 |
| CC(NC(=O)C1C2C=CC(C2)C1C(=O)O)c1ccccc1 (centres unmarked) | 14.7 |
| COc1cc(/C=C/c2nc3ccc([N+](=O)[O-])cc3s2)ccc1OCC(=O)O | 9.41 |
| COc1ccc([N+](=O)[O-])cc1NC(=S)NC(NC(C)=O)C(Cl)(Cl)Cl (centres unmarked) | 4.56 |
| COc1cc(OC)nc(Oc2ccc(NC(C)=O)cc2)n1 | 10.7 |
| COc1ccc(C2CC(c3cc(Br)ccc3F)n3nnnc3N2)cc1 (centres unmarked) | -2.78 |
| Cc1ccc(NC(=O)Nc2cnccn2)cc1C | 22 |
| CN1CCN(NC(=O)c2ccc(Br)s2)CC1 | -5.74 |
| CC1(C)C2CC=C(CN3CCOCC3)C1C2 (centres unmarked) | -1.04 |
| COc1ccc(CNc2nc(NCc3ccc(OC)c(OC)c3)n(C(=O)c3cccs3)n2)cc1OC | 12.3 |
| O=C(CSc1nnc(-c2ccc(F)cc2)o1)N1CCCC1 | -9.52 |
| CC(C)c1csc(CN2CCC(CCC(=O)NCC3CCCO3)CC2)n1 (centres unmarked) | 0.656 |
| Cc1ccc(CSc2ccc(C(=O)N3CCOCC3)cc2[N+](=O)[O-])cc1 | -0.475 |

Reference: paper PMC4336329 (PLoS ONE, 2015)
